Tested on: CD44v6
Test: Antigen binding affinity of humanised VFF-18 versions
Design: species or system human

B1: BIWA 8: Humanised CD44v6 antibody comprising light chains SEQ ID NO:8 and heavy chains SEQ ID NO:6 (antibody)
heavy: EVQLVESGGGLVKPGGSLRLSCAASGFTFSSYDMSWVRQAPGKGLEWVSTISSGGSYTYYLDSIKGRFTISRDNAKNSLYLQMNSLRAEDTAVYYCARQGLDYWGRGTLVTVSS[human IgG1 constant region cut from this listing]
light: EIVLTQSPATLSLSPGERATLSCSASSSINYIYWLQQKPGQAPRILIYLTSNLASGVPARFSGSGSGTDFTLTISSLEPEDFAVYYCLQWSSNPLTFGGGTKVEIKRTVAAPSVFIFPPSDEQLKSGTASVVCLLNNFYPREAKVQWKVDNALQSGNSQESVTEQDSKDSTYSLSSTLTLSKADYEKHKVYACEVTHQGLSSPVTKSFNRGEC
modifications: Humanised Murine Antibody BIWA 4 Heavy Chain; Humanised Murine Antibody BIWA 8 Light Chain
- Antigen binding affinity (comparative): higher binding affinity than BIWA 4

Source: US20040120949A1, “Compositions and methods for treating cancer using cytotoxic CD44 antibody immunoconjugates and radiotherapy” (Boehringer Ingelheim International GmbH, priority 2002, published 2004)
